According to article PMC10293653 (International Journal of Biological Macromolecules, 2023):

Tests used:
Cells viability assay = format: cell-based; conditions: African green monkey, Vero E6 cells
Mpro of SARS-CoV-2 = Mpro of SARS-CoV-2 (Severe acute respiratory syndrome coronavirus 2, UniProt P0DTD1); assay: Main protease; format: biochemical; conditions: read-out: inhibition of Mpro

Row | SMILES | CC50 at 48 h (Cells viability assay) | inhibition at 100 µM (Mpro of SARS-CoV-2)
1 | N[C@@H](CC(=O)N1CCn2c(nnc2C(F)(F)F)C1)Cc1cc(F)c(F)cc1F [Sitagliptin, sitagliptin] | 67.4 µM | –
2 | CN(C)C(=N)N=C(N)N [Metformin, metformin] | 46.3 µM | –
3 | N#C[C@@H]1C[C@@H]2C[C@@H]2N1C(=O)[C@@H](N)C12CC3CC(CC(O)(C3)C1)C2 [Saxagliptin, saxagliptin] | 21.1 µM | –
4 | CC#CCn1c(N2CCC[C@@H](N)C2)nc2c1c(=O)n(Cc1nc(C)c3ccccc3n1)c(=O)n2C [Linagliptin, linagliptin] | 21.3 µM | 31.5 ± 9.97%
5 | N#C[C@@H]1CCCN1C(=O)CNC12CC3CC(CC(O)(C3)C1)C2 [Vildagliptin, vildagliptin] | 131 µM | –
